Several values for one entry are separate records, joined by “and”; a condition that tells them apart may be missing. Identical values can stand only once. The shares of active, inactive and inconclusive entries below differ from those in the screen. Potencies of inconclusive entries are doubtful fits and often do not repeat. Activity calls are given as the source filed them. Calls follow the shape of the dose curve; as a rule, active = well fitted cell-killing curve with a large enough effect in the repeat runs; inconclusive = weak or mixed curves, or effect the other way; inactive = no such curve, though single readings can be large or run the other way.
Assay: qHTS assay to identify small molecule agonists of the vitamin D receptor (VDR) signaling pathway - cell viability counter screen (AID 743224); also: nearly all actives have a fitted effect of over 50% in size
Conditions: VDR-bla HEK293T viability, CellTiter-Glo luminescence, 16 h; activity change, negative = cytotoxicity: at 62.6 µM (top of the series)
Excerpt: U.S. Tox21 Program National Center for Advancing Translational Sciences [NCATS] NIH Chemical Genomics Center [NCGC] U.S. Environmental Protection Agency [EPA] National Institutes of Environmental Health Sciences [NIEHS] National Toxicology Program [NTP] U.S. Food and Drug Administration [FDA] Tox21 Assay Overview: The vitamin D receptor (VDR), a member of nuclear hormone receptor superfamily, plays a critical role in calcium homeostasis and bone metabolism. It is also involved in cell differentiation and growth, and thrombogenicity. […] The cytotoxicity of the Tox21 compound library against the VDR-bla cell line was tested in parallel by measuring the cell viability using CellTiter-Glo assay (Promega, Madison, WI) in the same wells.
Tox21 Assay Protocol Summary: VDR-bla cells were dispensed at 2,000 cells/6 uL/well into black wall/clear-bottom 1536-well plates using a Multidrop Combi (Thermo Fisher Scientific, Waltham, MA) dispenser. After the assay plates were incubated at a 37C and 5% CO2 for 4 h, 23 nL of compounds dissolved in DMSO, positive controls or DMSO only was transferred to the assay plate by a Pintool station (Kalypsys, San Diego, CA). The plates were incubated at 37C and 5% CO2 for 16 h. After 1 uL of LiveBLAzerTM B/G FRET substrate was added using a Bioraptr Flying Reagent Dispenser (FRD) workstation (Beckman Coulter, Indianapolis, IN, USA), the plates were incubated at room temperature for 2 h, and fluorescence intensity was measured by an Envision plate reader (PerkinElmer, Shelton, CT). For cell viability readout that measures cytotoxicity, 3 ul/well of CellTiter-Glo reagent was added into the assay plates using a FRD. After 30 min incubation at room temperature, the luminescence intensity in the plates was measured using a ViewLux (PerkinElmer) plate reader.
% is scaled to controls: 0 for no effect and ±100 for the full control effect; potency is read from the fitted curve at half-maximal effect; tags tell the direction and shape of the fitted curve.

Structure (SMILES)	activity change, negative = cytotoxicity	Potency
C=CC(=O)OCCCCCC	inactive: 0.62%	–
Nc1ccc(O)c([N+](=O)[O-])c1	–	inconclusive: 10.9 µM [cytotoxic, partial curve, poor fit]
CN1C(=O)N(c2ccccc2Br)Cc2cnc(Nc3ccc4c(c3)OCC(CO)O4)nc21 (stereo not given)	–	inconclusive: 3.89 µM [cytotoxic]
CN1CCCC(n2nc(Cc3ccc(Cl)cc3)c3ccccc3c2=O)CC1 (stereo not given)	–	inconclusive: 26.6 µM [cytotoxic, partial curve, poor fit]
C[C@@]12C(=O)OC(=O)[C@]1(C)C1CCC2O1	–	inconclusive: 11.9 µM [cytotoxic, single point]
O=C(OCc1ccccc1)c1ccc(O)cc1	–	inconclusive: 54.9 µM [cytotoxic, single point]
COc1cc(N)c(Cl)cc1C(=O)NC1CCN(CCCOc2ccc(F)cc2)CC1OC (stereo not given)	–	inconclusive: 9.44 µM [cytotoxic, partial curve]
Cc1ccc(OC(=O)c2ccccc2O)cc1	–	inconclusive: 12.3 µM [cytotoxic, full curve]
FC(F)(F)c1cccc(Cl)c1	inactive: -2.17%	–
Cc1occc1SSc1ccoc1C	–	inconclusive: 54.9 µM [cytotoxic, single point]
CC1COC(=O)O1 (stereo not given)	inconclusive: -32.3% [cytotoxic]	–
CCN1/C(=C/C=C/c2sc3ccccc3[n+]2CC)Sc2ccccc21	–	active: 4.61 µM
Clc1nc2ccccc2nc1Cl	–	inconclusive: 22.1 µM [rising, partial curve]
COc1cc(C=C2CCC/C(=C\c3ccc(O)c(OC)c3)C2=O)ccc1O	–	inconclusive: 33.5 µM [cytotoxic, single point]
CCOc1c(N2CCOCC2)cnn(C)c1=O	inactive: 9.39%	–
CCCCCCCCS(=O)C(C)Cc1ccc2c(c1)OCO2 (stereo not given)	–	active: 50 µM
CN1CCN(C2=Nc3cc(Cl)ccc3Nc3ccccc32)CC1	–	inconclusive: 21.1 µM [cytotoxic, partial curve]
Nc1nc(-c2ccccc2)cs1	inactive: -0.143%	–
S=c1nc[nH]c2nc[nH]c12	–	active: 15.1 µM and active: 10.6 µM
CCO[Si](CC(C)C)(OCC)OCC	–	inconclusive: 49 µM [cytotoxic, single point]

Structure (SMILES)	activity change, negative = cytotoxicity	Potency
Brc1cc(Br)c(Oc2cc(Br)c(Br)cc2Br)cc1Br	–	active: 23.9 µM
Nc1ccccc1N	–	inconclusive: 13.8 µM [cytotoxic, partial curve]
CCCCC(CC)COC(=O)c1ccccc1C(=O)O (stereo not given)	–	inconclusive: 4.99 µM [cytotoxic, partial curve, poor fit]
CC(C)C[C@H](NC(=O)[C@H](CCc1ccccc1)NC(=O)CN1CCOCC1)C(=O)N[C@@H](Cc1ccccc1)C(=O)N[C@@H](CC(C)C)C(=O)[C@@]1(C)CO1	–	inconclusive: 1.88 µM [cytotoxic, partial curve, poor fit]
Nc1nc(N)nc(-c2ccccc2)n1	–	inconclusive: 21.9 µM [cytotoxic, single point]
O=C(Nc1ccc(Cl)c(Cl)c1)c1cc(Cl)cc(Cl)c1O	–	active: 1.95 µM
CC(=O)CC(=O)Nc1ccc(S(=O)(=O)O)cc1	inactive: -16.1%	–
NC(N)=NN=C(/C=C/c1ccc([N+](=O)[O-])o1)/C=C/c1ccc([N+](=O)[O-])o1	–	inconclusive: 10.6 µM [cytotoxic, partial curve, poor fit]
OCCOCCN1CCN(C(c2ccccc2)c2ccc(Cl)cc2)CC1 (stereo not given)	–	inconclusive: 19.2 µM [cytotoxic, partial curve]
Cn1cnc([N+](=O)[O-])c1Sc1ncnc2nc[nH]c12	–	inconclusive: 4.34 µM [cytotoxic, full curve] and inconclusive: 16.8 µM [cytotoxic, partial curve]
O=C1OC[C@H](Cc2cccc(O)c2)[C@H]1Cc1cccc(O)c1	–	inconclusive: 1.86 µM [cytotoxic, partial curve, poor fit]
CC1CN(c2ccccc2)NC1=O (stereo not given)	–	inconclusive: 11 µM [cytotoxic, partial curve, poor fit]
c1ccc(C(O[C@@H]2CCCN(CCc3ccc4c(c3)OCO4)C2)c2ccccc2)cc1	–	inconclusive: 19.5 µM [cytotoxic, full curve]
CC#C[C@]1(O)CC[C@H]2[C@@H]3CCC4=CC(=O)CCC4=C3[C@@H](c3ccc(N(C)C)cc3)C[C@@]21C	–	inconclusive: 54.9 µM [cytotoxic, partial curve, poor fit]
Nc1ccc(N=Nc2ccccc2)c(N)n1	–	inactive
CCN(CC)CCCN(c1ccccc1)C1Cc2ccccc2C1	–	inconclusive: 10.6 µM [cytotoxic, partial curve, poor fit]
CCCC1C(CC)=CC(CC)=CN1c1ccccc1 (stereo not given)	–	inconclusive: 1.55 µM [cytotoxic, full curve, poor fit]
CCN(Cc1cccc(S(=O)(=O)O)c1)c1ccc(C(=C2C=CC(=[N+](CC)Cc3cccc(S(=O)(=O)O)c3)C=C2)c2ccccc2S(=O)(=O)[O-])cc1	–	inconclusive: 27.6 µM [cytotoxic, partial curve]
c1ccc(C[n+]2cccc3ccccc32)cc1	–	inconclusive: 8.71 µM [cytotoxic, full curve]
C[C@@H](O[C@H]1OCCN(Cc2n[nH]c(=O)[nH]2)[C@H]1c1ccc(F)cc1)c1cc(C(F)(F)F)cc(C(F)(F)F)c1	–	active: 23.7 µM
